In test [1] the target is K472E/R473E mutant Cul1-V5 (mouse) (UniProt Q9WTX6). As to the kind of experiment: co-IP; V5 immunoprecipitation of V5-tagged cullins from lysates of transfected HEK293 cells (in Fig. 2d dnUbc12 tet-on cells, induced with 1 µg/ml tetracycline for 24 hours); 4°C, 2 hours; washes in 50 mM Tris pH 7.5, 0.5% NP40, 5% glycerol, 0.5 mM EDTA, 50 mM NaCl; Western blot of the partners. In general terms: Immunoblotting shows a protein as a band on a membrane.

Amino acid sequences for entries named in this document (tags omitted). A change or cut given only in a name is not applied to a line headed by its entry.
UniProt Q9WTX6: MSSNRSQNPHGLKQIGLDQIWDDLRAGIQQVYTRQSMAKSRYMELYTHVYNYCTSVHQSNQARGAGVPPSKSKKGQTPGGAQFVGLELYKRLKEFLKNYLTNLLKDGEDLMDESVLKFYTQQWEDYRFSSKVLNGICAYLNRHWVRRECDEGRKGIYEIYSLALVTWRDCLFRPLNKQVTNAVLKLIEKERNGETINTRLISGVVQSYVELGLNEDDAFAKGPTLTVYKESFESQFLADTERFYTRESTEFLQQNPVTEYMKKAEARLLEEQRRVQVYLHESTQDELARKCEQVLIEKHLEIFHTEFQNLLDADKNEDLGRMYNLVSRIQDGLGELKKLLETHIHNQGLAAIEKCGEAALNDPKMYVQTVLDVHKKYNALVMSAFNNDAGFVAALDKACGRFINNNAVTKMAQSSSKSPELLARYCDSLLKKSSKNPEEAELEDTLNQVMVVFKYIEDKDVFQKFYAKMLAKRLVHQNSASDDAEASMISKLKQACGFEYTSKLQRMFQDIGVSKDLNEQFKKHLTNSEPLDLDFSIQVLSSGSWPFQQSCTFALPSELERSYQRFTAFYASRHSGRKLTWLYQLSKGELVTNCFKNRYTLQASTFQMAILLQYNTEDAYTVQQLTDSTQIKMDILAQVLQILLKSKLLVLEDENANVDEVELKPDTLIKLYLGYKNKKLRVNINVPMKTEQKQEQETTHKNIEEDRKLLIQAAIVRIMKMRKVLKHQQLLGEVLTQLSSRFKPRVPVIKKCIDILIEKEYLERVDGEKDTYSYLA
UniProt Q13617: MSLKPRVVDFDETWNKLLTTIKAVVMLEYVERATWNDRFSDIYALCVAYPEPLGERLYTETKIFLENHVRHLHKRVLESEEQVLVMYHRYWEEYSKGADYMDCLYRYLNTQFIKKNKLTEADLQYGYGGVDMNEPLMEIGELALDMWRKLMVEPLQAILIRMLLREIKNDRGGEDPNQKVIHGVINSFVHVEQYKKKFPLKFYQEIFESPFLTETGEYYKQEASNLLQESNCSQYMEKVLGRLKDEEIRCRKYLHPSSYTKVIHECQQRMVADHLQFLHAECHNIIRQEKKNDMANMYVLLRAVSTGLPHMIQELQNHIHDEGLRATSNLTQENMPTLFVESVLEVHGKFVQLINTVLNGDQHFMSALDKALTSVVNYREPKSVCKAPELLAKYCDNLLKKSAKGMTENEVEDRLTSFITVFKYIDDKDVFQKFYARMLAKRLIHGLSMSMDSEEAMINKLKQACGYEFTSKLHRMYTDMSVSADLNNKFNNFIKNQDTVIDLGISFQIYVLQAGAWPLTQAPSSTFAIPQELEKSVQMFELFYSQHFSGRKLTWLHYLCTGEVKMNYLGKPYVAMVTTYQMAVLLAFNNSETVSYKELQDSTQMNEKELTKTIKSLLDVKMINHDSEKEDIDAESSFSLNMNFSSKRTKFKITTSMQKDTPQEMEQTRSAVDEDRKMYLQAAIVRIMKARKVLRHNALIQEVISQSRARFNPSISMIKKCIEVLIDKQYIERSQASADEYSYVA
UniProt Q13619: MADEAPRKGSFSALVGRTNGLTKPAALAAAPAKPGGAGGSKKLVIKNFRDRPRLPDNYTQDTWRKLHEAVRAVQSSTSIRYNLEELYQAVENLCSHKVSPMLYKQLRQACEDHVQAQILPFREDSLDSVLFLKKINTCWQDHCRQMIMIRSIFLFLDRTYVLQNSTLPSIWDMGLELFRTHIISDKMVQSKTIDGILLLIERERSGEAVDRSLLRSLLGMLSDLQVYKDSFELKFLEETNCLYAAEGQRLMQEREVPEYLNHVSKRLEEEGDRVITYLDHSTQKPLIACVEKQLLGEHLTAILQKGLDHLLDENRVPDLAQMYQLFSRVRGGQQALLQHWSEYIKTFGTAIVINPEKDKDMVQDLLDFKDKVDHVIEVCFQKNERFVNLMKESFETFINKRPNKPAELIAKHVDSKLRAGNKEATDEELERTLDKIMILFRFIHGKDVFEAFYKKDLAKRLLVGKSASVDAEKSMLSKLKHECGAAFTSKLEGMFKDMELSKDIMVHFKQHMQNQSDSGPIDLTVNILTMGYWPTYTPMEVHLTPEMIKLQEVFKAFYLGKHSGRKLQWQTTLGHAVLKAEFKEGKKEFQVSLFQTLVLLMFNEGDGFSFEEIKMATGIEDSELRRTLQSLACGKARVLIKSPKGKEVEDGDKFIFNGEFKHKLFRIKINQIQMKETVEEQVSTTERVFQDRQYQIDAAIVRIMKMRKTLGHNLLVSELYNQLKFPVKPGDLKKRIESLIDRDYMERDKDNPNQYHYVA
UniProt Q93034: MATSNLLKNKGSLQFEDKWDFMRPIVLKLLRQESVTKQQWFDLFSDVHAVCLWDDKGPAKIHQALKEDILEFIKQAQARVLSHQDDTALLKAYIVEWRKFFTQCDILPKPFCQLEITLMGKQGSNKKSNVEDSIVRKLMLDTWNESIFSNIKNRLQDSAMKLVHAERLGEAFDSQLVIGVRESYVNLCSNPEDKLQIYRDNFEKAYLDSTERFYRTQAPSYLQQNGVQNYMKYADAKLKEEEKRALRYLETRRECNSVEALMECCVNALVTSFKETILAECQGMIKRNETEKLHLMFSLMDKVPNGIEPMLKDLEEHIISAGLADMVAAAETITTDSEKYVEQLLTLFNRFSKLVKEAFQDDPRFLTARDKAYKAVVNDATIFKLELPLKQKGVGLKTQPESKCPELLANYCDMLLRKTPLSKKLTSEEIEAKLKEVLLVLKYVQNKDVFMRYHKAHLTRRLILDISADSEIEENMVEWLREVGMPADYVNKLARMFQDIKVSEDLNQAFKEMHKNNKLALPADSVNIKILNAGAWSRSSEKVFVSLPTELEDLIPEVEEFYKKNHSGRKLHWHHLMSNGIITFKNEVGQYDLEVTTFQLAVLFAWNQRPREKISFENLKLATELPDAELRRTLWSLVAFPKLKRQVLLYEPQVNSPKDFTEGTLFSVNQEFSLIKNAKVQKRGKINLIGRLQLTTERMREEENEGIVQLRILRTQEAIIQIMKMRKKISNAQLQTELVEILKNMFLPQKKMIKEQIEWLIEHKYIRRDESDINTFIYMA
UniProt Q92905: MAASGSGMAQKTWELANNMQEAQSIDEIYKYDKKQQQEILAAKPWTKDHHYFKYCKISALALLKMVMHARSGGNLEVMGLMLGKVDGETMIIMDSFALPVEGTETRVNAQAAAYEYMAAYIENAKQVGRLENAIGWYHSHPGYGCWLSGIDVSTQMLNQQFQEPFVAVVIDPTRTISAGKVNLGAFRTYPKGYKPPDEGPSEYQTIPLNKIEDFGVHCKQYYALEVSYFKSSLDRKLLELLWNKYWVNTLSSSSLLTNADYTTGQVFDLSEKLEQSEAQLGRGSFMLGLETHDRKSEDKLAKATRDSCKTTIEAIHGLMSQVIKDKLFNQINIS
UniProt Q86VP6: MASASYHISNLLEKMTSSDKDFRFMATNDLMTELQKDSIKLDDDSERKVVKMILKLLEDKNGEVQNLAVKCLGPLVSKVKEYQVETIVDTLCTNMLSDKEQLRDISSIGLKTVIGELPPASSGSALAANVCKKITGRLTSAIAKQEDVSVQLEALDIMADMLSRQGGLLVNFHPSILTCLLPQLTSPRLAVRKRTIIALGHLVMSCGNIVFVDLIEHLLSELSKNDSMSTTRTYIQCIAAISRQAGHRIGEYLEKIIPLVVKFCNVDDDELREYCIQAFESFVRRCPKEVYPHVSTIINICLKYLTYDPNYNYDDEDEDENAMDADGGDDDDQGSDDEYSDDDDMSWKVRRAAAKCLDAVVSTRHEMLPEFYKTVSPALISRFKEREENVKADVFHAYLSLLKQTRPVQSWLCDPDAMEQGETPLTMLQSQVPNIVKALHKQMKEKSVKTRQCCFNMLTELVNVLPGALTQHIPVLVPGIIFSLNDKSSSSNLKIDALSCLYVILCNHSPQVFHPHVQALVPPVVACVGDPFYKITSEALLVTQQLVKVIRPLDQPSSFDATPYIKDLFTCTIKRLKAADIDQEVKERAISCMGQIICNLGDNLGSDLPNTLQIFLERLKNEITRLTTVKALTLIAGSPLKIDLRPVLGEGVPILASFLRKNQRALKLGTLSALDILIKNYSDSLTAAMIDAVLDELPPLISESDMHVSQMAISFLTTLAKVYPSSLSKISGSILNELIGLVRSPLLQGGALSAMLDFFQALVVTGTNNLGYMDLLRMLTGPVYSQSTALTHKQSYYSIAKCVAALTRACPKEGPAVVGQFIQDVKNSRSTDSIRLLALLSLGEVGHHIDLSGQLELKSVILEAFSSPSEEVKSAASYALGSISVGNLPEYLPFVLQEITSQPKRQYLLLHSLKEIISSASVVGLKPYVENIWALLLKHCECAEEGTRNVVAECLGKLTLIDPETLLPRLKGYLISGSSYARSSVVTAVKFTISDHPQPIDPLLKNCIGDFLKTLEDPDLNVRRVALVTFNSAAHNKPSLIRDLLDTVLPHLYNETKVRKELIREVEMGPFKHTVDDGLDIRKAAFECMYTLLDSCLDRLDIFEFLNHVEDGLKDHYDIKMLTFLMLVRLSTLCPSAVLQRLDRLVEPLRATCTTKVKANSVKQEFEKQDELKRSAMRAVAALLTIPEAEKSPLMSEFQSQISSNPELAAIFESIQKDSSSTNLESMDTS
UniProt Q9Y297: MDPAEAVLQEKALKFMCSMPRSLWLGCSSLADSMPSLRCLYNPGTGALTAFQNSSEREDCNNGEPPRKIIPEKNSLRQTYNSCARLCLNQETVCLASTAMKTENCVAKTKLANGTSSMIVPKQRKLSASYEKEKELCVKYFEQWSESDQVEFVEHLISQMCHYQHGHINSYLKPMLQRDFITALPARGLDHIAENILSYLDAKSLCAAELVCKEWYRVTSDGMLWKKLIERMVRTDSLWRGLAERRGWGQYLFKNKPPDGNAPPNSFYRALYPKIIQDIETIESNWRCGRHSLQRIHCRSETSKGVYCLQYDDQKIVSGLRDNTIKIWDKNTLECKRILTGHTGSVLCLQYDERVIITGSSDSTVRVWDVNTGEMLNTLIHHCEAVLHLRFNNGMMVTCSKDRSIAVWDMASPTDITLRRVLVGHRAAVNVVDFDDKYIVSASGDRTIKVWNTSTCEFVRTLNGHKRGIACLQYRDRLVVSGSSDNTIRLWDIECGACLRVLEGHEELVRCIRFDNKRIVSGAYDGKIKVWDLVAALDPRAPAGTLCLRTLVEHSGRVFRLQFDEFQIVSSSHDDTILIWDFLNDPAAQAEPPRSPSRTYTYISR
UniProt P63208: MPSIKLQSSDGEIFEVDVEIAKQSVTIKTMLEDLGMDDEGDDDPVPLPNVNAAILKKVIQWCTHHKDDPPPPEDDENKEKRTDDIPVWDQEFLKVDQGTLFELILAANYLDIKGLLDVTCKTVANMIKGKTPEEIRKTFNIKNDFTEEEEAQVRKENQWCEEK

Test [2] deals with full length Cul1-V5 (wild type) (mouse) (UniProt Q9WTX6). Described as above.
Test [3] addresses Cul1 carrying an N-terminal FLAG and a C-terminal V5 tag (mouse) (UniProt Q9WTX6). Kind of test: co-IP; HEK293 cells cotransfected with FLAG-Cul1-V5 and V5-tagged CAND1, β-TrCP or Skp2; total cell lysate; FLAG immunoprecipitation, Western blot with V5 antibody.
The target is the same in test [4]. Kind of test: co-IP; as the FLAG-Cul1-V5 immunoprecipitation, with cytoplasmic cellular fractions; data not shown.
Test [5] deals with full length Cul1-FLAG (mouse) (UniProt Q9WTX6). As to the kind of experiment: co-IP; FLAG immunoprecipitation of full length Cul1-FLAG from transfected dnCul1 tet-on cells (not induced) or cells with negative control or Skp1 siRNA (20 nM, three days); Western blot of endogenous Skp1, Skp2, CAND1.
The next test has as its target Cul2-V5 (UniProt Q13617). As to the kind of experiment: co-IP; V5 immunoprecipitation of V5-tagged cullins from lysates of transfected HEK293 cells (in Fig. 2d dnUbc12 tet-on cells, induced with 1 µg/ml tetracycline for 24 hours); 4°C, 2 hours; washes in 50 mM Tris pH 7.5, 0.5% NP40, 5% glycerol, 0.5 mM EDTA, 50 mM NaCl; Western blot of the partners.
The target of another test is Cul4a-V5 (UniProt Q13619). Described as above.
A further test addresses Cul5-V5 (UniProt Q93034). Described as above.
Test [6] concerns the target full length Cul1-FLAG (mouse) (UniProt Q9WTX6). As to the kind of experiment: condition: only with dnCul1-V5 induced (1 µg/ml tetracycline, 24 hours); co-IP; FLAG immunoprecipitation of full length Cul1-FLAG from dnCul1 tet-on cells with dnCul1-V5 induced by 1 µg/ml tetracycline during the last 24 hours; Western blot of endogenous proteins.
Test [7] addresses full length Cul1-V5 (wild type) (mouse) (UniProt Q9WTX6). As to the kind of experiment: co-IP; 10 µg recombinant GST-CAND1 transfected with TurboFect for one hour into cells expressing Cul1-V5 (with or without dnCul1-V5); V5 immunoprecipitation, Western blot with GST and V5 antibodies; only the binder purified.

No constants are given. Whether binding was seen depends on the method and setting. Binding seen in cells or lysates may run through a third protein. Some results given as binding are weak or reduced against the parent protein; the word gives no strength.

As for “CSN5 subunit of the COP9 signalosome (CSN) (from UniProt Q92905 1-334)”, the binding entry is given as “no binding” in test [1] and “binds” in [2].

“V5-tagged CAND1 (from UniProt Q86VP6 1-1230)”: the binding entry in test [3] was “binds weakly”.

Take “V5-tagged β-TrCP (from UniProt Q9Y297 1-605)”: the binding entry in test [4] and in [3] was “binds” throughout.

Consider “endogenous CAND1 (from UniProt Q86VP6 1-1230)”, for which the binding result (in test [5]; in the test with Cul2-V5; with Cul4a-V5; with Cul5-V5; in [1]; in test [2]) was “binds” throughout.

As to “endogenous Skp1 (from UniProt P63208 1-163)”, the binding result in test [5] is given as “binds”; in test [6] it was “no binding”.

As for “recombinant GST-CAND1 (from UniProt Q86VP6 1-1230)”, the binding result in test [7] is given as “binds”.
